{"source": "PubChem BioAssay (NCI)", "system": "NCI-H322M lung", "experiment": "growth of human tumour cells (NCI), 48 h", "note": "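Dose response: 5 concentrations. Exposure: 48 h. Format: 96-well plates. Endpoint: linear interpolation; highest concentration if not reached. TGI marks complete inhibition of growth.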"}
{"smiles": "Cc1cc(Br)ccc1N=Nc1c(C)nn(-c2ccccc2)c1-c1ccccc1", "values": [{"measurement": "TGI", "value": "> 100", "unit": "µM"}]}
